Laboratory results taken from PubChem BioAssay AID652104 (National Center for Advancing Translational Sciences (NCATS), 2013).
Among all 410,000 compounds or so, about 7,200 (1.8%) were called active. This list was built around the results that the source calls inconclusive (neither active nor inactive); the mix of calls is not that of the screen. Calls come from the whole dose curve; as a rule, active = well fitted activation curve with a large enough effect; inconclusive = small, poorly fitted or top-dose-only effect, or another doubt; inactive = no such curve, though single readings can be large or run the other way. Potencies of inconclusive entries are left out as doubtful fits.

experiment: qHTS of TDP-43 Inhibitors; conditions: TDP-43 expressing yeast growth rescue, BacTiter-Glo, 24 h; growth rescue (activation): at 46.1 µM (top of the series) unless noted; note: nearly all actives have a fitted effect of over 50% in size; for growth rescue (activation): % of control where 0% means no effect
Procedure, shortened: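 Cell-based yeast growth screen: TDP-43 expression induced in galactose, inoculum OD600=0.02 after raffinose pregrowth to mid-log. Read-out BacTiter-Glo luminescence at 24 hr, 30 deg C; inhibition of toxicity seen as signal increase.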
Potency is the fitted concentration of half-maximal effect; tags give direction and shape of the fitted curve.

SMILES | Potency | growth rescue (activation)
COCc1ccc(C(=O)N2CCCC(C(=O)c3ccc(Cl)cc3C)C2)o1 (stereo not given) | inconclusive [activator, single point] | –
CCCCNC(=S)N(C)/N=C/c1c(F)cccc1F | inconclusive [activator, partial curve, poor fit] | –
Cc1nc2ccccc2n1C(=O)c1ccccc1[N+](=O)[O-] | active: 20 µM | –
CCOC(=O)/C=C1\SCC(=O)N1CC(=O)NC(C)c1ccccc1 (stereo not given) | inconclusive [activator, single point] | –
Cc1ccc2c(c1)c1c3n2CCN(C=O)C3CCC1 (stereo not given) | inconclusive [activator, partial curve] | –
COC(=O)c1ccc(CSCC(=O)Nc2ccccc2)cc1 | inconclusive [activator, partial curve] | –
CC(C)C(N)c1csc(Nc2ccc(S(C)(=O)=O)cc2)n1 (stereo not given) | – | inactive: 11.2%
CCOC(=O)c1c(C2COc3ccccc3O2)csc1N (stereo not given) | inconclusive [activator, single point] | –
COc1ccc(Nc2ncc(C(=O)Nc3cc(Cl)c(OC)cc3OC)c3ccccc23)cc1 | inconclusive [activator, partial curve] | –
O=C(Nc1nc2c(ccc3ccccc32)s1)c1ccco1 | active: 5.62 µM | –
COc1ccc(COC(=O)C2CC(=O)N(Cc3ccccc3)C2)cc1 (stereo not given) | inconclusive [activator, single point] | –
COC(=O)CNC(=O)c1cc(-c2ccncc2)nc2ccc(C)cc12 | inconclusive [activator, single point] | –
O=C1CN=C(Nc2ccccc2Cl)N1Cc1ccc2c(c1)OCO2 | inconclusive [activator, single point] | –
COc1cccc(C2CC(=O)Nc3c2c(=O)nc2c(C)cccn32)c1 (stereo not given) | – | inactive: 23.5%
Cc1nn(C)c(C(=O)N/N=C/c2cccc3ccccc23)c1Cl | inconclusive [activator, partial curve, poor fit] | –
CCc1nnc(NC(=O)c2cccc(C(=O)Nc3nnc(CC)s3)n2)s1 | inconclusive [activator, partial curve] | –
COc1cccc(CNC(=O)CSc2nc3ccccc3nc2Cc2ccc(C)cc2)c1OC | – | inactive: 15.7%
CCOC(=O)c1cn(-c2c(Cl)cccc2Cl)c2cc(Cl)c([N+](=O)[O-])cc2c1=O | inconclusive [activator, partial curve] | –
N#Cc1ccc(/C=C\c2nccc3c2[nH]c2ccccc23)cc1 | inconclusive [activator, partial curve, poor fit] | –
Cc1cc(C)c(S(=O)(=O)N2CCC(N3CCN(Cc4ccc(F)cc4)C(=O)C3=O)CC2)c(C)c1 | – | inactive: 15.2%
COc1cccc(COc2cc3ccccc3nc2C)c1 | inconclusive [activator, full curve, poor fit] | –
O=S(=O)(Cc1cc(Sc2ccc(Cl)cc2)nc(-c2ccccc2)n1)c1ccccc1 | – | inactive: -10.6%
CC[C@H](C)/C=C/C1=CC2=C(Cl)C(=O)[C@@]3(C)OC(=O)C(C(=O)[C@H](C)[C@@H](C)O)=C3C2=CO1 | – | inconclusive: -87.1% [activator]
Cc1c(NC(=O)C(F)(F)F)ccc2nc3c(=O)n(C)c(=O)n(C)c3nc12 | – | inactive: 22.7%

SMILES | Potency | growth rescue (activation)
Cc1cccc(OCCOCCn2c(-c3ccc(Cl)cc3)nc3ccccc3c2=O)c1C | inconclusive [activator, full curve] | –
CC1(C)CC(=O)C2=C(C1)c1c(ccc3ccccc13)NC2c1cc([N+](=O)[O-])cc([N+](=O)[O-])c1O (stereo not given) | inconclusive [activator, partial curve] | –
Cc1cccc(NC(=O)c2oc3ccc(S(=O)(=O)N(C)C4CCCCC4)cc3c2C)c1C | – | inactive: 15%
Cc1ccc2oc(=O)n(Cc3ccc(OC(C)C)cc3)c2c1 | inconclusive [activator, partial curve] | –
CNc1cncc(-c2ccc(F)cc2F)n1 | inconclusive [activator, partial curve, poor fit] | –
CCOc1ccccc1NC(=O)CCCCCN1C(=O)[C@@H]2Cc3ccccc3CN2C1=O | inconclusive [activator, single point] | –
COc1ccc2cc(C(=O)O)ccc2c1 | – | inconclusive: -57.3% [activator]
Cc1cc(Br)cc2cn[nH]c12 | inconclusive [activator, partial curve] | –
COc1ccc(-n2c(SCc3nc(-c4ccc(Cl)cc4)no3)nnc2-c2ccncc2)cc1 | inconclusive [activator, single point] | –
COC(=O)c1cc(C)sc1NC(=O)CCc1ccccc1 | active: 11.2 µM | –
COc1ccc(NC(=O)c2ccco2)cc1NC(=O)c1cccc(OC(C)C)c1 | active: 12.6 µM | –
Cc1cc2nc(SCC(=O)Nc3nonc3C)c3c(c2cc1C)CCCC3 | – | inactive: -6.15%
COc1cccc(CNC(=O)CCC(=O)N2CCSc3ccccc32)c1OC | inconclusive [activator, single point] | –
Cc1cc(C(=O)COC(=O)Cc2ccc(Cl)cc2)c(C)n1C | inconclusive [activator, single point] | –
O=C(O)COc1ccccc1C1Nc2ccccc2-c2nnc(SCc3ccc(Cl)cc3)nc2O1 (stereo not given) | – | inactive: 0%
Cc1cc(C)nc(N/N=C2/CCSc3ccc(F)cc32)n1 | – | inactive: 7.81%
O=C(NCc1cccc(Cl)c1)c1ccc2c(Cl)c3c(nc2c1)CCCC3 | active: 11.2 µM | –
O=c1cc(N2CCCCC2)c(-c2ccccc2)nn1Cc1ccccc1Cl | inconclusive [activator, single point] | –
CCCCCn1c(=O)c(C(=O)c2ccccc2)nc2ccccc21 | inconclusive [activator, partial curve] | –
COc1cc(-c2noc(C)c2C#CC2(O)CCCCC2)cc(OC)c1OC | inconclusive [activator, single point] | –
Cn1nc(C(=O)NCCc2ccc3c(c2)OCCO3)c2ccccc2c1=O | inconclusive [activator, single point] | –
Cc1csc(NC(=O)c2ccc(Cn3nc(C)c(Br)c3C)o2)n1 | inconclusive [activator, single point] | –
Fc1ccc(C[n+]2csc3ccccc32)cc1 | active: 28.2 µM | –
COc1cc(C(=O)NCC(c2ccc3c(c2)OCO3)N2CCN(C)CC2)cc(OC)c1OC (stereo not given) | inconclusive [activator, partial curve] | –

SMILES | Potency | growth rescue (activation)
CC(C)c1ccc2oc(-c3cc(NC(=O)c4cccnc4)ccc3Cl)nc2c1 | active: 15.8 µM | –
O=C(O)c1cc(N/N=C/c2ccncc2)ccc1Cl | – | inactive: -5.85%
Cc1ccc(NCCCn2cnc3c(OCc4ccccc4)ncnc32)cc1C | inconclusive [activator, partial curve] | –
COc1cc(OC)cc(-c2c(-c3cccs3)c3cc(-c4cnc(N)nc4)ccc3n2C)c1 | inconclusive [activator, partial curve] | –
CCOc1ccccc1NC(=O)NCc1noc2ccc(C)cc12 | inconclusive [activator, partial curve] | –
CCOC(=O)c1ccc(NC(=O)c2nc[nH]c2C(=O)N[C@H](C)c2ccccc2)cc1 | inconclusive [activator, single point] | –
COc1ccccc1CCn1cnc(Cc2ccccc2)c1C(C)C | inconclusive [activator, full curve, poor fit] | –
CCc1ccc(S(=O)(=O)Nc2cccc(-c3ccc(OC)nn3)c2)s1 | active: 17.8 µM | –
CCOC(=O)[C@]12CCCC=C1N(CCC1=CCCCC1)C(=O)[C@H](CC(=O)NCC1CCCCC1)C2 | active: 22.4 µM | –
O=C(OCC(=O)c1c[nH]c2ccccc12)c1cccc([N+](=O)[O-])c1 | inconclusive [activator, single point] | –
COc1cc(O)ccc1-c1nc2cc(C)ccn2c1Nc1ccccc1C | – | inactive: 6.7%
O=C(c1ccc2ccccc2n1)N1CCN(S(=O)(=O)c2ccc(Cl)cc2)CC1 | active: 25.1 µM | –
O=C(c1ccccc1)N1CCN(C(=O)c2nn3c(C(F)(F)F)cc(-c4ccco4)nc3c2Cl)CC1 | – | inactive: 0.351%
Cc1snc(SCC(=O)c2ccc([N+](=O)[O-])cc2)c1C#N | active: 22.4 µM | –
O=C(CCSCc1ccc(Cl)cc1)N1CCN(c2ccccc2F)CC1 | inconclusive [activator, partial curve] | –
Cn1c(N2CCCCC2)nc2c1c(=O)n(Cc1cccc(Br)c1)c(=O)n2C | inconclusive [activator, single point] | –
CC1CCCCC1n1c(=S)[nH]c2ccccc2c1=O (stereo not given) | inconclusive [activator, single point] | –
CN(c1ccccc1)S(=O)(=O)c1ccc(C(=O)OCC(=O)N2CCOCC2)cc1 | inconclusive [activator, full curve, poor fit] | –
CCCCc1ccc(NS(=O)(=O)N(C)C)cc1 | inconclusive [activator, single point] | –
Cc1ccc(S(=O)(=O)N(C)C[C@@H]2Oc3ncc(Br)cc3C(=O)N([C@H](C)CO)C[C@H]2C)cc1 | – | inactive: 27.1%
CCCn1nnc(NC(=S)NC(=O)c2ccccc2OC)n1 | inconclusive [activator, partial curve] | –
O=C(Nc1ccc2c(c1)OCCO2)C(c1ccc(C(F)(F)F)cc1)n1c(=O)c(-c2cc3ccccc3[nH]2)nc2ccccc21 (stereo not given) | inconclusive [activator, full curve] | –
